From the supplement of paper PMC10369915
The other results are listed elsewhere or left out. Cut-off read from the data, not from the text of the source: active = 3.2 or more and inactive = the rest. Most of these values are background signal.

Biological target: SHP2 C-SH2 domain E139D
Test: enrichment score (SH2-bound / input frequency) (ratio); bacterial display of known human phosphotyrosine sites (pTyr-Var adds point mutants) read by sequencing; higher = stronger binding; tyrosines were phosphorylated by kinases first
Conditions: peptide library: pTyr-Var
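Note: displayed peptides selected on beads carrying the immobilized SH2 domain, with library peptides lacking any tyrosine serving as negative controls.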

Binder | enrichment score
FRNSLYAPDYS [FAM92A_Y226] | inactive: 0.98
FGSLLYKYAFK [FANCD2_Y458] | inactive: 0.543
VDLSKCITTIA [FAS_Y232_Y232C] | inactive: 0.604
FSQQVYRVNLS [FAT4_Y480] | inactive: 1.18
GETEQYVGGGG [FAT4_Y4980_A4977T] | inactive: 0.483
SLNEGYARDFD [FBP1_Y216] | inactive: 0.699
HLTLVYGGIFL [FBP1_Y259_R255L] | inactive: 0.913
VNLVLHLSIAK [FBXO15_Y496_Y496H] | inactive: 0.801
KNEVFYQCPDQ [FBXO3_Y223] | inactive: 0.78
DDEENYENVPR [FCRL3_Y722] | inactive: 0.57
DDEESYENVPR [FCRL3_Y722_N721S] | inactive: 0.27
DVSVVYSEVKT [FCRL4_Y493] | inactive: 2.05
DVSVVCSEVKT [FCRL4_Y493_Y493C] | inactive: 0.798
SPPILYSFYLD [FCRL6_Y239] | inactive: 1.89
SPPILYSFFLD [FCRL6_Y239_YF] | inactive: 2.25
YEEDSYSHVMA [FDPS_Y388_I391V] | inactive: 0.528
FEEDSYSHIMA [FDPS_Y388_YF] | inactive: 0.628
PPVVNYEEDAR [FER_Y402] | inactive: 0.551

Biological target: SHP2 C-SH2 domain wild-type
Test: as above
Conditions: peptide library: pTyr-Var

Binder | enrichment score
FRNSLYAPDYS [FAM92A_Y226] | inactive: 0.692
FGSLLYKYAFK [FANCD2_Y458] | inactive: 0.755
VDLSKCITTIA [FAS_Y232_Y232C] | inactive: 0.612
FSQQVYRVNLS [FAT4_Y480] | inactive: 0.985
GETEQYVGGGG [FAT4_Y4980_A4977T] | inactive: 0.393
SLNEGYARDFD [FBP1_Y216] | inactive: 0.48
HLTLVYGGIFL [FBP1_Y259_R255L] | inactive: 1.18
VNLVLHLSIAK [FBXO15_Y496_Y496H] | inactive: 1.57
KNEVFYQCPDQ [FBXO3_Y223] | inactive: 0.736
DDEENYENVPR [FCRL3_Y722] | inactive: 0.483
DDEESYENVPR [FCRL3_Y722_N721S] | inactive: 0.329
DVSVVYSEVKT [FCRL4_Y493] | active: 4.33
DVSVVCSEVKT [FCRL4_Y493_Y493C] | inactive: 0.981
SPPILYSFYLD [FCRL6_Y239] | inactive: 1.97
SPPILYSFFLD [FCRL6_Y239_YF] | inactive: 1.79
YEEDSYSHVMA [FDPS_Y388_I391V] | inactive: 0.736
FEEDSYSHIMA [FDPS_Y388_YF] | inactive: 0.571
PPVVNYEEDAR [FER_Y402] | inactive: 0.585

Biological target: SHP2 N-SH2 domain L43F
Test: as above
Conditions: peptide library: pTyr-Var

Binder | enrichment score
FRNSLYAPDYS [FAM92A_Y226] | inactive: 0.856
FGSLLYKYAFK [FANCD2_Y458] | inactive: 0.588
VDLSKCITTIA [FAS_Y232_Y232C] | inactive: 0.428
FSQQVYRVNLS [FAT4_Y480] | inactive: 1.29
GETEQYVGGGG [FAT4_Y4980_A4977T] | inactive: 0.434
SLNEGYARDFD [FBP1_Y216] | inactive: 0.591
HLTLVYGGIFL [FBP1_Y259_R255L] | inactive: 0.877
VNLVLHLSIAK [FBXO15_Y496_Y496H] | inactive: 0.764
KNEVFYQCPDQ [FBXO3_Y223] | inactive: 0.707
DDEENYENVPR [FCRL3_Y722] | inactive: 0.473
DDEESYENVPR [FCRL3_Y722_N721S] | inactive: 0.286
DVSVVYSEVKT [FCRL4_Y493] | inactive: 1.64
DVSVVCSEVKT [FCRL4_Y493_Y493C] | inactive: 1
SPPILYSFYLD [FCRL6_Y239] | inactive: 1.85
SPPILYSFFLD [FCRL6_Y239_YF] | inactive: 1.72
YEEDSYSHVMA [FDPS_Y388_I391V] | inactive: 0.645
FEEDSYSHIMA [FDPS_Y388_YF] | inactive: 0.617
PPVVNYEEDAR [FER_Y402] | inactive: 0.691

Biological target: SHP2 N-SH2 domain T42A
Test: as above
Conditions: peptide library: pTyr-Var

Binder | enrichment score
FRNSLYAPDYS [FAM92A_Y226] | inactive: 0.804
FGSLLYKYAFK [FANCD2_Y458] | inactive: 0.56
VDLSKCITTIA [FAS_Y232_Y232C] | inactive: 0.548
FSQQVYRVNLS [FAT4_Y480] | inactive: 1.02
GETEQYVGGGG [FAT4_Y4980_A4977T] | inactive: 0.425
SLNEGYARDFD [FBP1_Y216] | inactive: 0.594
HLTLVYGGIFL [FBP1_Y259_R255L] | inactive: 0.625
VNLVLHLSIAK [FBXO15_Y496_Y496H] | inactive: 0.625
KNEVFYQCPDQ [FBXO3_Y223] | inactive: 0.668
DDEENYENVPR [FCRL3_Y722] | inactive: 0.541
DDEESYENVPR [FCRL3_Y722_N721S] | inactive: 0.381
DVSVVYSEVKT [FCRL4_Y493] | active: 5.08
DVSVVCSEVKT [FCRL4_Y493_Y493C] | inactive: 0.584
SPPILYSFYLD [FCRL6_Y239] | inactive: 1.49
SPPILYSFFLD [FCRL6_Y239_YF] | inactive: 1.48
YEEDSYSHVMA [FDPS_Y388_I391V] | inactive: 0.606
FEEDSYSHIMA [FDPS_Y388_YF] | inactive: 0.575
PPVVNYEEDAR [FER_Y402] | inactive: 0.53

Biological target: SHP2 N-SH2 domain T52S
Test: as above
Conditions: peptide library: pTyr-Var

Binder | enrichment score
FRNSLYAPDYS [FAM92A_Y226] | inactive: 0.712
FGSLLYKYAFK [FANCD2_Y458] | inactive: 0.57
VDLSKCITTIA [FAS_Y232_Y232C] | inactive: 0.512
FSQQVYRVNLS [FAT4_Y480] | inactive: 1.11
GETEQYVGGGG [FAT4_Y4980_A4977T] | inactive: 0.395
SLNEGYARDFD [FBP1_Y216] | inactive: 0.971
HLTLVYGGIFL [FBP1_Y259_R255L] | inactive: 0.699
VNLVLHLSIAK [FBXO15_Y496_Y496H] | inactive: 0.546
KNEVFYQCPDQ [FBXO3_Y223] | inactive: 0.777
DDEENYENVPR [FCRL3_Y722] | inactive: 0.508
DDEESYENVPR [FCRL3_Y722_N721S] | inactive: 0.441
DVSVVYSEVKT [FCRL4_Y493] | inactive: 1.48
DVSVVCSEVKT [FCRL4_Y493_Y493C] | inactive: 0.744
SPPILYSFYLD [FCRL6_Y239] | inactive: 1.93
SPPILYSFFLD [FCRL6_Y239_YF] | inactive: 1.93
YEEDSYSHVMA [FDPS_Y388_I391V] | inactive: 0.794
FEEDSYSHIMA [FDPS_Y388_YF] | inactive: 0.591
PPVVNYEEDAR [FER_Y402] | inactive: 0.489

Biological target: SHP2 N-SH2 domain wild-type
Test: as above
Conditions: peptide library: pTyr-Var

Binder | enrichment score
FRNSLYAPDYS [FAM92A_Y226] | inactive: 0.902
FGSLLYKYAFK [FANCD2_Y458] | inactive: 0.596
VDLSKCITTIA [FAS_Y232_Y232C] | inactive: 0.923
FSQQVYRVNLS [FAT4_Y480] | inactive: 1.12
GETEQYVGGGG [FAT4_Y4980_A4977T] | inactive: 0.536
SLNEGYARDFD [FBP1_Y216] | inactive: 0.687
HLTLVYGGIFL [FBP1_Y259_R255L] | inactive: 1.31
VNLVLHLSIAK [FBXO15_Y496_Y496H] | inactive: 1.22
KNEVFYQCPDQ [FBXO3_Y223] | inactive: 0.792
DDEENYENVPR [FCRL3_Y722] | inactive: 0.7
DDEESYENVPR [FCRL3_Y722_N721S] | inactive: 0.41
DVSVVYSEVKT [FCRL4_Y493] | inactive: 1.19
DVSVVCSEVKT [FCRL4_Y493_Y493C] | inactive: 0.858
SPPILYSFYLD [FCRL6_Y239] | inactive: 1.27
SPPILYSFFLD [FCRL6_Y239_YF] | inactive: 1.63
YEEDSYSHVMA [FDPS_Y388_I391V] | inactive: 0.68
FEEDSYSHIMA [FDPS_Y388_YF] | inactive: 0.671
PPVVNYEEDAR [FER_Y402] | inactive: 0.685
